Where a name gives a salt, the structure may show the parent alone. The list shows a part of the results. Cut-off read from the data, not from the text of the source: active = -2 or less and inactive = the rest. Single values are uncertain, as repeats are few or missing.
System: hPSC-derived cortical neurons (WA09)
Assay: nuclei number (viability) z-score; higher = more surviving cells
Details: 5 µM; treatment: days 7-14 after plating, readout day 21
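Note: nuclei counted from DAPI counterstain by automated high-content image analysis, four fields per well at ×20 in 384-well plates, with sequential b-score then z-score normalization.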

Compound	nuclei number (z-score)
O=C(Nc1cccc(Cl)c1)Nc1ncc(CCNc2ncnc3ccsc23)s1 [SNS-314 Mesylate]	inactive: 1.55
CNC(=O)c1ccc(N2C(=S)N(c3cnc(C#N)c(C(F)(F)F)c3)C(=O)C23CCC3)cc1F	inactive: 1.13
O=C(c1ccc(OCCN2CCCCC2)cc1)c1c(-c2ccc(O)cc2)sc2cc(O)ccc12 [Raloxifene HCl]	inactive: -0.108
CO[C@H]1CC[C@H](N2C(=O)CNc3ncc(-c4ccc(C(C)(C)O)nc4)nc32)CC1	active: -6.12
CCOc1cc(N2CCC(O)CC2)ccc1Nc1ncc2c(n1)N(C)c1ccccc1C(=O)N2C	inactive: -0.864
Fc1ccc2[nH]ccc2c1-c1nc(N2CCOCC2)c2sc(CN3CCN(CC4CC4)CC3)cc2n1	inactive: -0.554
CC(CN1c2ccccc2Sc2ccccc21)N(C)C (centres undefined) [Promethazine HCl]	inactive: -0.0641
CNC(=O)c1ccccc1Sc1ccc2c(/C=C/c3ccccn3)n[nH]c2c1 [Axitinib]	inactive: 0.215
Cc1ccc(NC(=O)Nc2cc(C(F)(F)F)ccc2F)cc1Nc1ccc2c(c1)NC(=O)/C2=C\c1ccc[nH]1	active: -3.71
CCOC(=O)C1=C(C)NC(C)=C(C(=O)OC)C1c1cccc([N+](=O)[O-])c1 (centres undefined) [Nitrendipine]	inactive: 4.47
CCn1cc(C(=O)O)c(=O)c2cc(F)c(N3CCNCC3)cc21 [Norfloxacin]	inactive: -0.561
COC1(c2sc3c(N4CCOCC4)nc(-c4cnc(N)nc4)nc3c2C)COC1	inactive: -0.776
c1ccc2c(-c3cnn4cc(-c5ccc(N6CCNCC6)cc5)cnc34)ccnc2c1	active: -5.7
CC(C)(Oc1ccc(C2CC2(Cl)Cl)cc1)C(=O)O (centres undefined) [Ciprofibrate]	inactive: 0.666
CC(C)C[C@H](NC(=O)c1cc2ccccc2s1)C(=O)N1CCN(C(=O)[C@H](CO)NS(=O)(=O)c2ccc(Cl)cc2Cl)CC1	inactive: 0.207
CC(C)[C@H](NC(=O)c1ccc2ccccc2n1)C(=O)N[C@@H](CC(=O)O)C(=O)COc1c(F)cccc1F	inactive: 0.35
C=CCN1CCCC1CNC(=O)c1cc2nn[nH]c2cc1OC (centres undefined) [Alizapride HCl]	inactive: 0.682
Nc1nc(Nc2ccc(S(N)(=O)=O)cc2)nn1C(=O)c1c(F)cccc1F	inactive: -0.81
CO[C@@H](C)Cn1c(=O)n(C)c2cnc3ccc(-c4cncc(C(C)(C)O)c4)cc3c21	active: -3.99
CC(C)c1onc(-c2c(Cl)cccc2Cl)c1COc1ccc(/C=C/c2cccc(C(=O)O)c2)c(Cl)c1	inactive: 8.01
NC(=O)CCCSc1nc(N)nc(-c2c(Cl)cc3c4c(cccc24)COC3)n1	active: -7
N#CC(=C(/N)Sc1ccccc1N)/C(C#N)=C(\N)Sc1ccccc1N	inactive: -0.364
COc1ccc(CNCc2cccc3ccccc23)cc1	inactive: 0.877
NC(=O)[C@@H](CCC(F)(F)F)N(Cc1ccc(-c2ncon2)cc1F)S(=O)(=O)c1ccc(Cl)cc1	inactive: 0.346
Cc1[nH]c(/C=C2\C(=O)Nc3ccc(S(=O)(=O)Cc4c(Cl)cccc4Cl)cc32)c(C)c1C(=O)N1CCC[C@@H]1CN1CCCC1	active: -4.56

Compound	nuclei number (z-score)
Cc1c(Cn2c(C)nc3c(C(=O)O)cc(N4CCOCC4)cc32)cccc1C(F)(F)F	inactive: 0.452
O=C(NCc1ccc(Oc2ccccc2)cc1)c1nc(-c2cc(Br)c(O)c(Br)c2)no1	inactive: 0.0238
CCCCCCCCCCCCCCCC[N+](C)(C)C [Cetrimonium Bromide (CTAB)]	active: -7.92
S=c1nc[nH]c2nc[nH]c12 [6-Mercaptopurine (6-MP) Monohydrate]	inactive: -0.0883
Nc1nccs1 [Aminothiazole]	inactive: -0.675
NC(=O)c1cccnc1 [Nicotinamide (Vitamin B3)]	inactive: 1.77
CCCc1nc(C(C)(C)O)c(C(=O)OCc2oc(=O)oc2C)n1Cc1ccc(-c2ccccc2-c2nnn[nH]2)cc1 [Olmesartan Medoxomil]	inactive: 0.618
Cn1c(=O)c2c(ncn2CC(O)CO)n(C)c1=O (centres undefined) [Dyphylline]	inactive: -0.191
NCc1c[nH]c(=S)n1[C@H]1CCc2c(F)cc(F)cc2C1 [Nepicastat (SYN-117) HCl]	inactive: 0.635
O=C(O)CCc1nc2ccccc2[nH]1 [Procodazole]	inactive: 0.57
COc1ccc(-c2cc3c(C)nc(N)nc3n([C@H]3CC[C@H](OCCO)CC3)c2=O)cn1	inactive: -0.257
Cn1c(=O)c(F)c(Nc2ccc(I)cc2F)c2c(=O)n(C[C@@H](O)CO)cnc21	active: -7.87
COc1ccc(/C=C/C(=O)C2(C(=O)/C=C/c3ccc(OC)c(OC)c3)CCCCC2)cc1OC	inactive: 0.0225
CCC(C)(C)c1ccc(CC(C)CN2C[C@@H](C)O[C@@H](C)C2)cc1 (some centres undefined) [Amorolfine HCl]	active: -5.24
CC(C)N(CCC(=O)c1ccc2ccccc2c1)Cc1ccccc1	active: -5.42
CC(C)(C)C#Cc1cc(N(C(=O)[C@H]2CC[C@H](C)CC2)[C@H]2CC[C@H](O)CC2)c(C(=O)O)s1 [VX-222 (VCH-222_ Lomibuvir)]	inactive: -0.0943
CCOC(=O)c1ccc(C#Cc2ccc3c(c2)C(C)(C)CCS3)nc1 [Tazarotene]	inactive: 0.868
CCCOc1ccc(CCc2nc3cc(-c4c(C)noc4C)ccc3n2CCN2CCOCC2)cc1	inactive: -0.17
CCCNS(=O)(=O)Nc1ncnc(OCCOc2ncc(Br)cn2)c1-c1ccc(Br)cc1 [Macitentan]	inactive: 0.408
Nc1ccc(S(N)(=O)=O)cc1 [Sulfanilamide]	inactive: -0.17
CCN1CCC[C@H]1CNC(=O)c1cc(S(N)(=O)=O)ccc1OC [Levosulpiride]	inactive: -0.298
Cc1ccc(NC(=S)NNc2c([N+](=O)[O-])cc(C(F)(F)F)cc2[N+](=O)[O-])cc1Cl	inactive: -0.615
CCOc1nc2cccc(C(=O)OC(C)OC(=O)OC3CCCCC3)c2n1Cc1ccc(-c2ccccc2-c2nn[nH]n2)cc1 (centres undefined) [Candesartan Cilexetil]	inactive: 0.589
O=C(CCN1CCN(C(=O)OCc2cc(Cl)cc(Cl)c2)CC1)c1ccc2[nH]c(=O)oc2c1	inactive: 0.45
CN(C)CCC(c1ccccc1)c1ccccn1 (centres undefined) [Pheniramine Maleate]	inactive: -1.12

Compound	nuclei number (z-score)
Cc1cccc(Nc2nc(-c3ccncc3)cs2)c1	inactive: -0.12
Nc1ccn([C@@H]2O[C@H](CO)[C@@H](O)[C@H]2O)c(=O)n1 [Cytidine]	inactive: -0.445
CC(C)NCCCn1c(Sc2cc3c(cc2I)OCO3)nc2c(N)ncnc21	active: -4.41
Cc1c(O)cccc1C(=O)N[C@@H](CSc1ccccc1)[C@H](O)CN1C[C@H]2CCCC[C@H]2C[C@H]1C(=O)NC(C)(C)C [Nelfinavir Mesylate]	inactive: -0.0367
O[C@@H]1CO[C@H]2[C@@H]1OC[C@@H]2O [Isosorbide]	inactive: -0.319
O=c1cc(CN2CCOCC2)occ1OCCCCCSc1ccnc2cc(C(F)(F)F)ccc12	inactive: 0.566
CN(C)CCN1C(=O)c2cccc3cc(N)cc(c23)C1=O [Amonafide]	active: -2.28
CCOc1ccc(Cc2cc([C@@H]3O[C@H](CO)[C@@H](O)[C@H](O)[C@H]3O)ccc2Cl)cc1 [Dapagliflozin]	inactive: 0.00793
O=C(O)c1cc(=O)c2c(OCC(O)COc3cccc4oc(C(=O)O)cc(=O)c34)cccc2o1 [Disodium Cromoglycate]	inactive: 0.662
CCN1/C(=C/C(C)=O)Sc2ccc(OC)cc21	inactive: 0.577
Nc1nc(=O)c2c([nH]1)NCC(CNc1ccc(C(=O)N[C@@H](CCC(=O)O)C(=O)O)cc1)N2C=O (some centres undefined) [Leucovorin Calcium Pentahydrate]	inactive: 0.565
CCCCC(C=O)NC(=O)C(CC(C)C)NC(=O)C(CC(C)C)NC(C)=O (centres undefined)	active: -5.07
CCCCCCCCCCCCCCCCO [1-Hexadecanol]	inactive: 1.64
Cc1ccc(O)c([C@H](CCN(C(C)C)C(C)C)c2ccccc2)c1 [Tolterodine tartrate]	inactive: 0.0262
Cc1cc(C)cc(NC(=O)Cc2ccc(OC(C)(C)C(=O)O)cc2)c1 [Efaproxiral Sodium]	inactive: -0.382
CCCCOc1ccc(CC(=O)NO)cc1 [Bufexamac]	inactive: -0.169
NC[C@H]1CC[C@H](C(=O)O)CC1 [Tranexamic Acid]	inactive: -0.121
Oc1c(Cl)cc(Cl)cc1Sc1cc(Cl)cc(Cl)c1O [Bithionol]	inactive: 0.223
CO[C@H]1C(=O)[C@]2(C)[C@@H](OC)C[C@H]3OC[C@@]3(OC(C)=O)[C@H]2[C@H](OC(=O)c2ccccc2)[C@]2(O)C[C@H](OC(=O)[C@H](O)[C@@H](NC(=O)OC(C)(C)C)c3ccccc3)C(C)=C1C2(C)C [Cabazitaxel]	inactive: -0.0465
CCCC(C(=O)OCCN(CC)CC)(c1ccccc1)c1ccccc1 [Proadifen HCl]	inactive: -1
CN1CCC[C@H]1c1cccnc1 [Nicotine Ditartrate]	inactive: 0.243
O=S(=O)(O)CCSSCCS(=O)(=O)O [Dimesna]	inactive: 0.709
CC(C)(C)c1ccc(S(=O)(=O)NCc2ccc(C(=O)Nc3cccnc3)cc2)cc1	inactive: 4.85
Clc1ccccc1C(c1ccccc1)(c1ccccc1)n1ccnc1 [Clotrimazole]	inactive: -0.175

— the supplement of paper PMC11348887
